Measured values taken from PMC4336329 (PLoS ONE, 2015).
Hit rate of the full screen: of about 310,000 compounds, about 14,000 (4.5%) showed an effect of 50% or more. Effects have a minus sign here. The list shows a part of the results.

biological target: human ether-à-go-go-related gene (hERG) potassium channel (human, UniProt Q12809); test: primary screen, population patch clamp on CHO cells stably expressing hERG
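Note: peak tail current of the secondary pulse compared with the same well before compound.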

Sequence of human ether-à-go-go-related gene (hERG) potassium channel (Q12809 whole entry, looked up): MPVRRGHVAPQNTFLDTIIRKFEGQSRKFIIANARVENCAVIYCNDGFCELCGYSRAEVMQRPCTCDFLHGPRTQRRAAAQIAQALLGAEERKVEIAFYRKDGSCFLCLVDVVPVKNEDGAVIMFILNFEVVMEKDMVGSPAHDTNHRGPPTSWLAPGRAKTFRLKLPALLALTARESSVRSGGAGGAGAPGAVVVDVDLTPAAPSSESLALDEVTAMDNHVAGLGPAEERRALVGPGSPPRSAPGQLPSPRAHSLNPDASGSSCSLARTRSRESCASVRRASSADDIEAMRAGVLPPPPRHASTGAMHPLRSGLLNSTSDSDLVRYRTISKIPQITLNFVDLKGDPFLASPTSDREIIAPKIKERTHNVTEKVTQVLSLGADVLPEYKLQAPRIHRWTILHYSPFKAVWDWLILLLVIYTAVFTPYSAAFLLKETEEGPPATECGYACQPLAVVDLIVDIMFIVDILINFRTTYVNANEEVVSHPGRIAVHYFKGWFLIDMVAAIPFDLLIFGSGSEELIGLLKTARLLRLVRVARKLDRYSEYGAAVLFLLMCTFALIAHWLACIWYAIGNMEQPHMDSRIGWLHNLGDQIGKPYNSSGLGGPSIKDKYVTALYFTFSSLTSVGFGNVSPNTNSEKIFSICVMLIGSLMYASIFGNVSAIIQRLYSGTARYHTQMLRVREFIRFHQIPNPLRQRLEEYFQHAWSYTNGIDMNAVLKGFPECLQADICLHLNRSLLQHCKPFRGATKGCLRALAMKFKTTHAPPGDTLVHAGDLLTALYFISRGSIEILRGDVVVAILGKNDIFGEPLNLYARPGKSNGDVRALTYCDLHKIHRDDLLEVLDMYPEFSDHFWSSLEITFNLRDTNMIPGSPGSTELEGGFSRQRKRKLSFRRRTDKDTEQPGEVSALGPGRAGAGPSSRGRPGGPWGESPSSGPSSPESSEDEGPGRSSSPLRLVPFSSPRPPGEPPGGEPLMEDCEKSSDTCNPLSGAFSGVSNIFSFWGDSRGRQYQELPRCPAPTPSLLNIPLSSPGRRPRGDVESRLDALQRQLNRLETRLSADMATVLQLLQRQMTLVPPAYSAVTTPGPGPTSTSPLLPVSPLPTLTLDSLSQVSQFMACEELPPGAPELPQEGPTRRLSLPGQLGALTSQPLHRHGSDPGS

SMILES	hERG current change (%, negative = inhibition) at 10uM [%]
CN(C)/C=N/c1nc2ncc(-c3ccc(Cl)cc3)c(/N=C/N(C)C)n2n1	9.96
CN1CCN(c2oc(COc3ccc(-c4ccccc4)cc3)nc2C#N)CC1	-19
COc1cccc(C2c3c(oc4ccccc4c3=O)C(=O)N2CCCN2CCOCC2)c1 (centres unmarked)	-21.1
NC(CSC12CC3CC(CC(C3)C1)C2)C(=O)O (centres unmarked)	15
COc1ccc(NC(=O)NCCCN2CCN(c3cc(C)ccc3C)CC2)cc1	-92.2
CCCc1cc(=O)[nH]c(SCC(=O)Nc2ccc3c(c2)CCC3)n1	22.5
Cc1cc(C(=O)N2CCN(CCc3ccccc3)CC2)no1	-6.68
CCC(C)c1ccc(NC(=S)NCc2cccs2)cc1 (centres unmarked)	1.58
O=S(=O)(c1cccc(Cl)c1)N1CN(CC2CCCO2)c2nc3ccccc3nc21 (centres unmarked)	-10.2
CCOC(=O)C1=C(C)NC(=O)NC1c1ccc(OCC(=O)OC)c(OC)c1 (centres unmarked)	-6.24
COc1cccc2cc(C(=O)NCc3ccc(C)cc3)c(=N)oc12	-13.3
COc1ccc(N2C(=O)CC(N3CCN(S(=O)(=O)c4c(F)cccc4F)CC3)C2=O)cc1OC (centres unmarked)	3.4
CN(C)C(=S)NC1CCS(=O)(=O)C1 (centres unmarked)	5.62
Cc1ccc2c(cnn2C(=O)CCC(=O)N2CCCCC2C)c1 (centres unmarked)	-7.08
O=C(NN=C1CCCC1)c1n[nH]c2c1CCCC2	26.7
COC(=O)c1ccc(-c2nc(O)c3cnccn23)cc1	14.1
COc1cc(CNCc2ccccn2)ccc1OCc1ccc(Cl)cc1.Cl	-56.8
CNS(=O)(=O)c1cccc(C(=O)OCC(=O)N2CC(C)OC(C)C2)c1 (centres unmarked)	26.3
CC1CCN(CC(=O)Nc2ccc(N3CCCCCC3)cc2)CC1.O=C(O)C(=O)O	-14.1
Nc1nonc1-n1nnc(C(=O)N/N=C/c2ccccn2)c1CNc1ccccc1	-5.99
COCCCNC(=O)c1c(NC(=O)c2ccco2)n(Cc2ccccc2)c2nc3ccccc3nc12	-5.81
CC(NC(=S)NC1CCCCC1)C(c1ccccc1)N1CCOCC1 (centres unmarked)	12.5

SMILES	hERG current change (%, negative = inhibition) at 10uM [%]
CCOc1ccc2nc(N3CCCC(C(=O)N4CCN(CC)CC4)C3)sc2c1 (centres unmarked)	-28.9
CCOC(=O)N1CCN(C(=O)C2CCC(=O)N(CCc3ccccc3)C2)CC1 (centres unmarked)	-0.101
Cn1c(=O)c(/C(N)=N/OC(=O)c2ccccc2)cn(-c2ccccc2)c1=O	6.48
Cc1ccc(NC(=O)c2ccccc2)s1	1.37
O=C(COC(=O)C1CC2CCCC(C1)C2=O)NNC(=O)c1ccc([N+](=O)[O-])cc1 (centres unmarked)	-21
COCCCNC(=O)c1nc2c(nnn2Cc2cc(C)ccc2C)c(=O)[nH]1	1.91
COC(=O)C1=C(c2ccc(OC(F)(F)F)cc2)C[C@@H]2CC[C@H]1N2C(=O)N1CCOCC1	-29.4
C=CCOC(=O)/C(=C\c1ccccc1)NC(=O)c1ccco1	1.97
O=C(Nc1nc2c(s1)CCCC2)c1cccc(S(=O)(=O)N2CCCc3ccccc32)c1	12.8
Cc1cccc(N2C(=O)CC(Sc3ncn[nH]3)C2=O)c1 (centres unmarked)	17.3
O=C(Nc1nnc(CC(c2ccccc2)c2ccccc2)s1)c1ccco1	17.9
Cc1ccccc1OCCC(=O)OCC(=O)NCCc1ccc(S(N)(=O)=O)cc1	-29
CCOC(=O)C1(CCOc2ccccc2)CCN(Cc2cccn2-c2cccnc2)CC1	-51.8
OCCC1CN(Cc2nc3c(s2)CCCC3)CCN1Cc1ccsc1 (centres unmarked)	-14.6
CC(C)(C)c1ccc(-c2nc(-c3ccncc3)no2)cc1	5.92
Cc1nc2ccccc2n1CC(=O)NCc1ccccc1	21.4
CN(C(=O)c1ccccc1F)C(c1ccccc1)c1ccccc1	8.16
CC(=O)c1ccc(N2C(=NC(=O)CCc3ccccc3)SC3CS(=O)(=O)CC32)cc1 (centres unmarked)	-5.21
Cc1sc2nc(SCc3ccccc3)n(Cc3ccco3)c(=O)c2c1C	-2.09
COc1ccc(C)cc1NC1=NCCCS1	19
CC(=O)Nc1ccc(NC(=O)CSc2n[nH]c(-c3cccs3)n2)cc1	-5.05
Cc1nn(Cc2ccc(Cl)cc2)c(C)c1NC(=O)CCCn1nc([N+](=O)[O-])c(Cl)c1C	-64

SMILES	hERG current change (%, negative = inhibition) at 10uM [%]
CC(=O)Nc1ccc(NC(=O)C(C)N2CCN(S(=O)(=O)c3ccc(C)cc3)CC2)cc1 (centres unmarked)	17.1
COc1cccc(-c2nc(CS(=O)(=O)CC(=O)N3CCc4ccccc43)c(C)o2)c1	11.3
CC(=O)N1CCN(C(=O)COc2ccc(N(C)S(=O)(=O)c3cccs3)cc2)CC1	-14.7
C/C(CC(=O)NCc1ccco1)=N\NC(=O)C(c1ccccc1)c1ccccc1	-9.57
NNC(=O)CC(=O)NC1(Cc2ccc(O)cc2)CCCCC1	-27.5
O=C(CN1CCN(Cc2ccccc2)CC1)NC(=O)NCc1ccco1	-30.3
O=C(COc1ccc2c(c1)oc(=O)c1ccccc12)NCC1CCC(C(=O)O)CC1 (centres unmarked)	4.69
CC(=O)c1sc(N/N=C/c2cccc([N+](=O)[O-])c2)nc1C	25.2
O=C(Nc1ccc(S(=O)(=O)Nc2ccccn2)cc1)c1cccc([N+](=O)[O-])c1	-4.13
NS(=O)(=O)c1ccc(CCNC(=O)CCc2nc3sc4c(c3c(=O)[nH]2)CCCC4)cc1	17.6
CS(=O)(=O)c1cccc(S(=O)(=O)N2CCCCCC2)c1	10.7
O=C1N=C(N2CCCCC2)SC1=C1CCCC1	15.5
O=Cc1cccc(OC(=O)Nc2ccccc2)c1	6.95
COc1ccc(NC(=O)Cn2nnc(C(=O)NCc3ccco3)c2N)cc1	17
COc1c(OC(C)=O)ccc(/C=C/c2ccc3cccc(OCc4ccccc4)c3n2)c1[N+](=O)[O-]	17.2
Cc1cccc(-c2nnn(Cc3nnc(NC(=O)c4ccccc4)s3)n2)c1	4.02
Cc1cc(S(=O)(=O)NCC(C)C)ccc1OCC(=O)NC1CC1	-8.22
CC1(C)Cc2cccc(C(=O)NC3CCN(Cc4ccccc4)CC3)c2O1	-49.6
Cc1nc2ccc(Br)cn2c1C(=O)N/N=C\c1ccccc1[N+](=O)[O-]	27.6
NC(=O)c1ccc(NC(=O)COC(=O)c2cc([N+](=O)[O-])ccc2N2CCOCC2)cc1	-8.28
CCOC(=O)CSc1n[nH]c(-c2cccnc2)n1	11.7
CC(C)(C)C1C/C(=C/c2ccco2)C(=O)/C(=C/c2ccco2)C1 (centres unmarked)	-10.3

SMILES	hERG current change (%, negative = inhibition) at 10uM [%]
COc1cc(OC)c(NC(=O)c2ccc(Br)o2)cc1Cl	-12.2
O=C(CCCN1C(=O)/C(=C\c2cccs2)SC1=S)Nc1ccc(O)cc1	22.6
COc1ccc2oc(=O)c(C(=O)N3CCN(C(=O)c4ccco4)CC3)cc2c1	-12.9
O=C(COc1ccc2ccccc2c1)NCCNC(=O)COc1ccc2ccccc2c1	17.2
CCOC(=O)N1CCN(Cc2nc3c(c(=O)n(C)c(=O)n3C)n2Cc2cccc3ccccc23)CC1	-29.2
CCOC(=O)c1ccc2cccc(C)n2c1=O	3.05
NNC(=O)CNC(c1ccccc1)c1cc(Br)ccc1NC(=O)c1ccccc1Br (centres unmarked)	-14.9
O=C1CN(C(=O)COc2ccc(Br)cc2)c2ccccc2N1	-20.6
COc1ccc(-n2nc(C(=O)NCC(=O)NCC3COc4ccccc4O3)c3ccccc3c2=O)cc1OC (centres unmarked)	-6.28
O=C(Cc1ccccc1)c1c[nH]c(C(=O)C(Cl)(Cl)Cl)c1	18.3
CCCCn1c(SCC(=O)Nc2nnc(CC)s2)nc2c1c(=O)n(C)c(=O)n2C	-3.24
CCOc1ccc(CCNC(=O)Cn2ncn3nc(-c4ccc(OC)cc4)cc3c2=O)cc1OCC	21.1
CCCn1c2ccccc2c2nnc(SC(CC)C(=O)Nc3sc4c(c3C#N)CCCC4)nc21 (centres unmarked)	25.3
CCOc1ccc(Cn2ccnc2CCl)cc1[N+](=O)[O-]	-33.2
COc1ccc(C(=O)NC2CCN(CC(=O)NCc3cccc(OC)c3)CC2)cc1	-19.9
CCN(CC(=O)Nc1ccc(NC(C)=O)cc1)C(=O)CSc1ncnc2sc(C)c(C)c12	8.99
O=C(N/N=C/c1ccccc1)c1ccc(N2CCOCC2)c([N+](=O)[O-])c1	-28.6
COc1ccccc1NC(=O)COC(=O)c1cc([N+](=O)[O-])ccc1N1CCCC1	-0.76
CSc1ccccc1C(=O)Nc1nc2ccccc2c(=O)[nH]1	5.96
COc1ccc(Cn2nnnc2C(c2ccc(C)cc2)N2CCN(C3CCCC3)CC2)cc1.Cl (centres unmarked)	-63.8
